The supplement of paper PMC7826260
This is one part of the list. One pool of 16,384 single-stranded DNAs met each Rep nickase domain in vitro for 1 h at 37 °C with 3 µM enzyme; only the middle of the 90-letter strands is printed. The score is log2 (uncut reads / reads without enzyme); strong cutting gives strongly negative numbers. There is no active / inactive call. The scaling is to total reads; uncut strands gain when others are lost, and binding without cutting may add a little.

Key:
Experiment in all cases: uncleaved DNA left, log2 of reads against the no-enzyme library (log2 ratio); higher = less cleavage (more negative = more Rep cleavage of the k-mer); sequences stand for … in CTCGTCCG…ACCGGAGA
[1] = system: T1, Rep nickase domain of Muscovy duck circovirus
T1 sequence (Rep 1-111, printed without the tag): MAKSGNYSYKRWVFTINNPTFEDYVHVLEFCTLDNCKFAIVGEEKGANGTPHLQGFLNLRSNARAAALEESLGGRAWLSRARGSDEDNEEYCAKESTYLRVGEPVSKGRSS
Description: (§1)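 A pool of 90-nt single-stranded DNAs with seven random bases just before the constant AC of the nick site (name = the seven bases) was cut by 3 µM recombinant His6-SUMO-tagged Rep nickase domain (300 nM DNA, 50 mM HEPES pH 8.0, 50 mM NaCl, 1 mM MnCl2, 1 h, 37 °C, three replicates). Uncut DNA was amplified and sequenced.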

[2] = system: T2, Rep nickase domain of banana bunchy top virus
T2 sequence (Rep 1-94, printed without the tag): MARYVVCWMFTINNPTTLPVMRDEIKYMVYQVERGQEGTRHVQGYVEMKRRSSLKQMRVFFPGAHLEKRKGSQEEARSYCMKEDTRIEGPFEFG
Description: as §1

[3] = system: T3, Rep nickase domain of cabbage leaf curl virus
T3 sequence (Rep 1-116, printed without the tag): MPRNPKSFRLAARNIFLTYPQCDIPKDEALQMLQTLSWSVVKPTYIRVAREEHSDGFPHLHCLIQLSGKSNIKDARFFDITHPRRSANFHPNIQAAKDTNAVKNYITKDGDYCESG
Description: as §1

[4] = system: T4, Rep nickase domain of chickpea chlorotic dwarf virus
T4 sequence (Rep 1-124, printed without the tag): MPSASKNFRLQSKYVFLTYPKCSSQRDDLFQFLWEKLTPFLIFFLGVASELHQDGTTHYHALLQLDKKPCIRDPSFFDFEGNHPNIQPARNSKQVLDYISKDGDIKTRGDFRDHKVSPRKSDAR
Description: as §1

[5] = system: T5, Rep nickase domain of faba bean necrotic yellows virus
T5 sequence (Rep 1-98, printed without the tag): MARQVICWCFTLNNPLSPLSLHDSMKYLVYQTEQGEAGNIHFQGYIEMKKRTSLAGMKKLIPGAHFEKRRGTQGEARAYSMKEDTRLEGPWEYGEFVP
Description: as §1

[6] = system: T6, Rep nickase domain of maize striate mosaic virus
T6 sequence (Rep 1-117, printed without the tag): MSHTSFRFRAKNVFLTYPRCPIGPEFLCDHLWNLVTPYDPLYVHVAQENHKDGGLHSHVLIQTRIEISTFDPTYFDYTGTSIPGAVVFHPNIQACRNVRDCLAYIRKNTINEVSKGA
Description: as §1

[7] = system: T7, Rep nickase domain of porcine circovirus 2
T7 sequence (Rep 2-116, printed without the tag): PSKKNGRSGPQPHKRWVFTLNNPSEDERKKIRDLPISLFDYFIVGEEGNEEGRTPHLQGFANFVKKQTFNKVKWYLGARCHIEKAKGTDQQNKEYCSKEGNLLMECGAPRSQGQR
Description: as §1

[8] = system: T8, Rep nickase domain of tomato yellow leaf curl virus
T8 sequence (Rep 1-136, printed without the tag): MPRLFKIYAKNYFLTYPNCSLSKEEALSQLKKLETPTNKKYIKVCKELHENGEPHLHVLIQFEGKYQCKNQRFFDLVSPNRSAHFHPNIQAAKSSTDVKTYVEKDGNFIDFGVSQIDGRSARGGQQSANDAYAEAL
Description: as §1

[9] = system: T9, Rep nickase domain of wheat dwarf virus
T9 sequence (Rep 1-137, printed without the tag): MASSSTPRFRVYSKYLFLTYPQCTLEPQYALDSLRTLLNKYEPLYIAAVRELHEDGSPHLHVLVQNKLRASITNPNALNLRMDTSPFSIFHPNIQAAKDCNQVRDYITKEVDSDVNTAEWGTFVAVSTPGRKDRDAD
Description: as §1

| Sequence | uncleaved DNA left (log2) [1] | uncleaved DNA left (log2) [2] | uncleaved DNA left (log2) [3] | uncleaved DNA left (log2) [4] | uncleaved DNA left (log2) [5] | uncleaved DNA left (log2) [6] | uncleaved DNA left (log2) [7] | uncleaved DNA left (log2) [8] | uncleaved DNA left (log2) [9] |
| --- | --- | --- | --- | --- | --- | --- | --- | --- | --- |
| CACCTGA | -0.0119 | 0.0249 | 0.0179 | -0.301 | 0.211 | -0.108 | 0.0416 | 0.0151 | 0.104 |
| ACCCCCC | 0.0369 | -0.0402 | -0.00767 | 0.000911 | -0.00401 | -0.184 | -0.0783 | -0.194 | 0.0618 |
| TGCGTGC | 0.131 | 0.0949 | 0.0655 | 0.249 | -0.0571 | -0.00255 | 0.169 | 0.0403 | -0.0774 |
| TCTGGGC | -0.177 | 0.0204 | 0.145 | -0.00406 | -0.0882 | -0.436 | 0.0476 | -0.0176 | -0.0793 |
| GGAGGTT | 0.0392 | 0.117 | 0.656 | 1.27 | 0.0568 | 2.03 | 0.0849 | 0.00724 | 0.136 |
| ATGAAGG | 0.07 | 0.0782 | 0.154 | 0.83 | -0.0647 | 0.0652 | -0.0025 | -0.116 | 0.0333 |
| GGACAAC | 0.0782 | 0.183 | 0.92 | 1.98 | 0.0526 | 2.31 | 0.276 | 0.0937 | 0.146 |
| CGTACCA | 0.0252 | 0.191 | 0.0666 | -0.815 | 0.111 | -0.0824 | -0.385 | 0.0929 | 0.071 |
| TCTTCTC | -0.149 | -0.143 | 0.0106 | -0.234 | 0.012 | -0.467 | -0.172 | 0.00963 | -0.037 |
| CACCTGG | -0.138 | -0.0258 | -0.243 | -0.0759 | -0.0498 | -0.743 | 0.0188 | 0.00431 | 0.02 |
| AGAAACC | 0.00506 | -0.0506 | 0.403 | 0.679 | 0.024 | 0.342 | -0.227 | -0.059 | 0.0554 |
| ATTCCAC | 0.0753 | 0.0742 | -0.0376 | -0.305 | 0.131 | -0.6 | -0.837 | 0.0646 | 0.072 |
| TACGTCA | 0.0572 | 0.0134 | -0.0269 | -1.87 | -0.0567 | -0.257 | -0.205 | 0.0733 | -0.118 |
| GTATCAA | 0.0818 | 0.108 | 0.337 | 0.996 | -0.0113 | 1.73 | 0.0247 | 0.0734 | 0.153 |
| TGGTCCG | 0.07 | 0.0583 | -0.816 | -0.0889 | 0.0516 | -0.732 | 0.0801 | 0.111 | -0.109 |
